{
  "source": "the supplement of paper PMC3334620",
  "note": "The full ranking holds about 33,000 sequences; the median of “E-score (-0.5 to 0.5)” is about -0.041, and the highest 2% start at about 0.37. This is one part of the list.",
  "data": [
    {"target": "T1, Ecm22 (UniProt Q05958)", "T1 sequence": "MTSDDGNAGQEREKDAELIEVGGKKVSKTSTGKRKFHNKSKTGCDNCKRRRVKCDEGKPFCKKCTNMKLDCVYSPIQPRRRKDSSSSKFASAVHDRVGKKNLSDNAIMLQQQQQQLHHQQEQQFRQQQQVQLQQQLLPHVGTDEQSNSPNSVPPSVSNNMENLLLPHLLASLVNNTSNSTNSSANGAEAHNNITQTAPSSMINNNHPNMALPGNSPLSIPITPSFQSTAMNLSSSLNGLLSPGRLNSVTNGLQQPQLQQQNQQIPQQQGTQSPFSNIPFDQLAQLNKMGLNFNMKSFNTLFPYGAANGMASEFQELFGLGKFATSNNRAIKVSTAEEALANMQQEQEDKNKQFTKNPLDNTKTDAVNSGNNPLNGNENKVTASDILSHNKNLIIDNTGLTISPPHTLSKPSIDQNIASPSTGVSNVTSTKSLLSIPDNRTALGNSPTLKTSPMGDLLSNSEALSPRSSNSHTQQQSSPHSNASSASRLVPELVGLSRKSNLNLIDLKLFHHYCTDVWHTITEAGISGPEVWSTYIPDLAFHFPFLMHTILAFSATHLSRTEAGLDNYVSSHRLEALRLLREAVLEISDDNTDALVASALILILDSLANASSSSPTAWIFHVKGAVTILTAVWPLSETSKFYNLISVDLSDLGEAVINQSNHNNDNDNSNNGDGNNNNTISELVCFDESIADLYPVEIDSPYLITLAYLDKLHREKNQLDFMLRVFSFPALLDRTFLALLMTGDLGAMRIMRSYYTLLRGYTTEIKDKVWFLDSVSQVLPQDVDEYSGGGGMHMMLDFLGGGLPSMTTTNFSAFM", "test": "PBM E-score (8-mer binding enrichment) (E-score (-0.5 to 0.5)); higher = stronger / more preferred TF binding; most listed sequences are background and not binding sites", "conditions": "protein concentration: 200 nM; construct: GST-full length", "summary_of_the_method": "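The E-score, a modified Wilcoxon-Mann-Whitney statistic, was computed by the Universal PBM Analysis Suite for every ungapped eight-base word pooled with its reverse complement. Scans behind it were normalised with masliner after bound GST-tagged yeast transcription factors were detected with fluorescent anti-GST. The proteins, at about 100-200 nM, had been applied to universal all-10-mer Agilent arrays made double-stranded by primer extension.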", "values": [
      {"sequence": "CATAAATA", "PBM E-score": -0.00296},
      {"sequence": "CTGAAAAC", "PBM E-score": -0.0564},
      {"sequence": "TCGAACGA", "PBM E-score": 0.373},
      {"sequence": "ATACTGAC", "PBM E-score": 0.0254},
      {"sequence": "GAGGTATC", "PBM E-score": -0.0143},
      {"sequence": "AGTATATA", "PBM E-score": 0.341},
      {"sequence": "GCGATGGA", "PBM E-score": 0.0944},
      {"sequence": "AACGAGCC", "PBM E-score": 0.442},
      {"sequence": "AGGACTCC", "PBM E-score": -0.245},
      {"sequence": "AGCTTGCC", "PBM E-score": -0.118},
      {"sequence": "CGCCCCAC", "PBM E-score": -0.0585},
      {"sequence": "CCACTAGA", "PBM E-score": -0.31},
      {"sequence": "CCCACGAG", "PBM E-score": -0.163},
      {"sequence": "CCGGCTAC", "PBM E-score": -0.0157},
      {"sequence": "AGACTGTC", "PBM E-score": -0.103},
      {"sequence": "ACGTGGAG", "PBM E-score": 0.068},
      {"sequence": "CCTCTTCG", "PBM E-score": 0.111},
      {"sequence": "ATGCCCTA", "PBM E-score": -0.201},
      {"sequence": "CTTGCCTC", "PBM E-score": 0.111},
      {"sequence": "CTGACGCC", "PBM E-score": -0.09},
      {"sequence": "CTGCCCCC", "PBM E-score": -0.264},
      {"sequence": "AAAGGTAG", "PBM E-score": -0.237},
      {"sequence": "ACCACCTA", "PBM E-score": -0.204},
      {"sequence": "ACGCGGTC", "PBM E-score": 0.0261},
      {"sequence": "CACTGAAC", "PBM E-score": 0.126},
      {"sequence": "ATCCCTAG", "PBM E-score": -0.121},
      {"sequence": "AAGGGCAC", "PBM E-score": -0.28},
      {"sequence": "GCATTGCA", "PBM E-score": -0.166},
      {"sequence": "CGGAGTCC", "PBM E-score": -0.246},
      {"sequence": "CGCGGCTA", "PBM E-score": 0.0813},
      {"sequence": "AGCTCATG", "PBM E-score": -0.0882},
      {"sequence": "CTCTAAAG", "PBM E-score": -0.199},
      {"sequence": "ACTCATAA", "PBM E-score": -0.0425},
      {"sequence": "ACGCAACC", "PBM E-score": 0.0517},
      {"sequence": "AACTACCG", "PBM E-score": -0.0253},
      {"sequence": "CTCGGAAG", "PBM E-score": 0.0345},
      {"sequence": "GACCTCTC", "PBM E-score": 0.0888},
      {"sequence": "CTAGAGAC", "PBM E-score": -0.191},
      {"sequence": "GGGGTTGA", "PBM E-score": -0.249},
      {"sequence": "GATAAACC", "PBM E-score": 0.00425},
      {"sequence": "CGGGTCGA", "PBM E-score": -0.00467},
      {"sequence": "ACATGTGC", "PBM E-score": 0.0554},
      {"sequence": "GATGCTGC", "PBM E-score": -0.112},
      {"sequence": "ACGGATTG", "PBM E-score": 0.189},
      {"sequence": "CCTACCGA", "PBM E-score": 0.0195},
      {"sequence": "AAAGGGTG", "PBM E-score": -0.261},
      {"sequence": "CGTTGGCA", "PBM E-score": 0.05},
      {"sequence": "AACATCGT", "PBM E-score": 0.264},
      {"sequence": "ACCGTGTG", "PBM E-score": -0.0211},
      {"sequence": "GAGGTCTA", "PBM E-score": 0.0563},
      {"sequence": "GTTAGGCA", "PBM E-score": -0.322},
      {"sequence": "AATTACTC", "PBM E-score": -0.165},
      {"sequence": "CGCAATCC", "PBM E-score": 0.0833},
      {"sequence": "ACTGTCAG", "PBM E-score": -0.086},
      {"sequence": "AGCTAGAG", "PBM E-score": -0.0823},
      {"sequence": "CGGCTTTC", "PBM E-score": -0.00764},
      {"sequence": "ACCCCTCT", "PBM E-score": -0.217},
      {"sequence": "ACTCCTTC", "PBM E-score": -0.211},
      {"sequence": "CGAATATC", "PBM E-score": 0.145},
      {"sequence": "CACCTGAG", "PBM E-score": -0.272},
      {"sequence": "AGGATAAG", "PBM E-score": -0.0902},
      {"sequence": "ACAGGAAT", "PBM E-score": -0.231},
      {"sequence": "GACCAGGA", "PBM E-score": -0.0856},
      {"sequence": "TGGGTGAA", "PBM E-score": 0.0282},
      {"sequence": "GCGGCTAA", "PBM E-score": -0.034},
      {"sequence": "CGATCGAC", "PBM E-score": 0.00021},
      {"sequence": "ATTCAATA", "PBM E-score": 0.0713},
      {"sequence": "TATTCTAA", "PBM E-score": 0.0623},
      {"sequence": "TTCATCAA", "PBM E-score": -0.0685},
      {"sequence": "TAGCATGA", "PBM E-score": -0.251},
      {"sequence": "TTCGTCAA", "PBM E-score": 0.142},
      {"sequence": "AAGAACGT", "PBM E-score": 0.101},
      {"sequence": "CCCCATGC", "PBM E-score": -0.239},
      {"sequence": "ACGGGCAA", "PBM E-score": 0.188},
      {"sequence": "CAGACCCG", "PBM E-score": -0.0751},
      {"sequence": "ATCAGTAC", "PBM E-score": 0.125},
      {"sequence": "CTACTATC", "PBM E-score": 0.047},
      {"sequence": "GTCTAAAC", "PBM E-score": 0.0979},
      {"sequence": "CAATTCAG", "PBM E-score": -0.149},
      {"sequence": "AAGCCAAC", "PBM E-score": 0.114},
      {"sequence": "GCGTATGA", "PBM E-score": 0.218},
      {"sequence": "AATTATAG", "PBM E-score": 0.00483},
      {"sequence": "AACCAATG", "PBM E-score": -0.113},
      {"sequence": "CTAGCGAG", "PBM E-score": 0.168},
      {"sequence": "AGGTAAGA", "PBM E-score": 0.0356},
      {"sequence": "ATCAACAT", "PBM E-score": -0.0773}
    ]}
  ]
}
